First the molecules themselves.
B1: OR4K15 (parent)
chain: GUUAACGGUCAUAGGCCAUGGAAACUAGGAGCACCAUUUCGCUGCCAGUGAAGAAAUGAACAAAGAAAAUCUGGGCCAGGCAGGCAUCAAAAGAAAUAGUCUUGCGCUCAACCAGAAAGUCUGUAAUCAUUUUAAGGGUA

Read counts are not given, so values of variants with three or more changes are uncertain.

The series covers variants of B1. Briefly: self-cleavage, relative activity (ratio to wild type); higher = more cleavage; in vitro, sequencing; the parent is a self-cleaving ribozyme.
On to GUUAACGGUCGUAGGCCAUGGAAACUAGGGGCACCAUUUCGCUGCCAGUGAAGAAAUGAACAAAGAAAAUCUGGGCCAGGCAGGCAUCAAAAGAAAUAGUCUUGCGCUCAACCAGAAGGUCCGUAAUCAUUUUAAGGGUA [A11G A30G A118G U122C], for which the self-cleavage was found to be 0.61.

For GUUAACGGUCGUAGGCCAUGGAAACUGGGAGCACCAUUUCGCUGCCAGUGAAGAAAUGAACAAAGAAAAUCUGGGCCAGGCAGGCACCAAAAGAAAUAGUCUUGCGCUCAACCAGAAAGUCUGUAAUCAUUUUGAGGGUA [A11G A27G U87C A134G], the self-cleavage is 1.14.

Take GUUAACGGUCGUAGGCCAUGGAAACUGGGAGCACCAUUACGCUGCCAGUGAAGAAAUGAACAAAGAAGAUCUGGGCCAGGCAGGCAUCAAAAGAAAUAGUCUUGCGCUCAACCAGAAAGUCUGUAAUCAUUUUAAGGGUA [A11G A27G U39A A68G]: the self-cleavage is 1.05.

GUUAACGGUCGUAGGCCAUGGAAGCUAGGAGCACCAUUCCGCUGCCAGUGAGGAAAUGGACAAAGAAAAUCUGGGCCAGGCGGGCAUCAAAAGAAAUAGUCUUGCGCUCAACCAGAAAGUCUGUAAUCAUUUUAAGGGUA [A11G A24G U39C A52G A59G A82G]: the self-cleavage was 0.49.

In the case of GUUAACGGUCGUAGGCCAUGGAAACUAGGAGCACCAUUUCGCUGCCGGUGCAGAAAUGAACAAAGAAAGUCUGGGCCAGGCAGGCAUCAAAAGAAAUAGUCUUGCGCUCAACCAGAAAGUCUGUAAUCAUUCUAAGGGUA [A11G A47G A51C A69G U132C], the self-cleavage is 0.11.

Take GUUAACGGUCGUAGGCCAUGGAUACUAGGAGCACCAUUUCGCUGCCAGUGAAGAAAUGAACAAAGAAAAUCUGGGCCAGGCAGGCAUCAAAAGAAAUAGUCUUGCGCUCAACCAGAAAGUCCGUAAUCAUUUUAAGGGUA [A11G A23U U122C]: the self-cleavage came out at 1.13.

GUUAACGGUCGUAGGCCAUGGAAGCUAGGAGCACCAUUUCGCUGCCAGUGAAGAAAUGAACAAAGAAAAUCUGGGCCAGGCAGGCAUCAAAGGAAAUAGUCUUGCGCUCAACCAGAAAGUCUGUAAUCAUUUUAAGGGUA [A11G A24G A92G]: the self-cleavage worked out at 0.6.

GUUAACGGUCGUAGGCCAUGGAAACUAGGAGCACCAUUUCGCUGCCUGUGAAGAAUUGAGCAAAGAAAAUCUGGGCCAGGCAGGCAUCAAAAGAAAUAGUCUUGCGCUCAACCAGAAAGUCUGUAAUCAUUUUAAGGGUA [A11G A47U A56U A60G]: the self-cleavage worked out at 0.51.

Take GUUAACGGUCGUAGGCCAUGGAAGCUAGGAGCACCACUUCGCUGCCAGUGAAGAAAUGAACAAAGAAAAUCUGGGCCAGGCAGGCAUCAAAAGAGAUAGUCUUGCGCUCAACCAGAAAGUCUGUAAUCAUUUUAAGGGUA [A11G A24G U37C A95G]: the self-cleavage came to 1.72.

In the case of GUUAACGGUCGUAGGCCAUGGAAACUAGGAGCGCCAUUUCGCUGCCAGUGAAGAAAUGAACAAAGAAAAUCUGGGCCAGGCAGGCAUCAAAAGAAAUAGUCUUGCGCUCAACCAGAAAGUCUGUAACCAUUUUAAGGGCA [A11G A33G U127C U139C], the self-cleavage is 0.16.

Consider GUUAACGGUCGUAGGCCAUGGAAACUAGGAGCGCCAUUUCGCUGCCAGUGAAGAAAUGAACAAAGAAAGUCUGGGCCAGGCAGGCAUCAAAAGAAAUAGUCUUGCGCUCAACCAGAAAGUCUGUAAUCAUUUUAAGGGUA [A11G A33G A69G], for which the self-cleavage came to 0.6.

As to GUUAACGGUCGUAGGCCAUGGAUACUAGGAGCACCAUUUCGCUGCCAGUGAAGAAAUGAACAAAGAAAAUCUGGGCCAGGCAGGCAUCGAAAGAAAUAGUCUUGCGCUCAACCAGAAAGUCUGCAAUCAUUUUAAGGGUA [A11G A23U A89G U124C], the self-cleavage is 0.85.

As for GUUAACGGUCGUAGGCCAUGGAAACUAGGAGCGCCAUUUCGCUGCCAGUGAAGAUGUGAACAAAGAAAAUCUGGGCCAGGCAGGCAUCAAAAGAAAUAGUCUUGCGCUCAACCGGAAAGUCUGUAAUCAUUUUAAGGGUA [A11G A33G A55U A56G A114G], the self-cleavage was 0.06.

As to GUUAACGGUCGUAGGCCAUGGAAACUAGGAGCACCAUUUCGCUGCCAGUGGAGAAAUGUACAAAGAAAAUCUGGGCCAGGCAGGCAUCAAAAGAAAUAGUCUUGCGCUCAACCAGAAAGACUGUAAUCAUUUUAAGGGUA [A11G A51G A59U U120A], the self-cleavage came out at 1.32.

For GUUAACGGUCGUAGGCCAUGGAGACUAGGAGCACCAUUUCGCUGCCAGUGAAGAAAUGGACAAAGAAAAUCUGGGCCAGGCAGGCAUCAAAAGAAAUAGUCUUGCGCUCAACCAGAAAGUCUGUAACCAUUUUAAGGGUA [A11G A23G A59G U127C], the self-cleavage stood at 0.53.

GUUAACGGUCGUAGGCCAUGGAAACUAGGGGCACCAUUUCGCUGCCAGCGAAGAAAUGAACAAAGAAAAUCUGGGCCAGGCAGGCAUCAAAAGAAAUAGUCUUGCGCUCAACCAGAAAGUCUGUAAUCAUUUUAAGGGCA [A11G A30G U49C U139C]: the self-cleavage was 1.41.

As to GUUAACGGUCGUAGGCCAUGGAAACUAGGAGCACCGUUUCGCUGCCAGUGAAGAAAUGGACAAAGAAAAUCUGGGCCAGGUAGGCAUCAAAAGAAAUAGUCUUGCGCUCAACCAGAAAGUCUGUGAUCAUUUUAAGGGUA [A11G A36G A59G C81U A125G], the self-cleavage was found to be 0.09.

Regarding GUUAACGGUCGUAGGCCAUGGAAACUAGGAGCGCCAUUUCGCUGCCAGUGAAGAAAUUAACAAAGAAAGUCUGGGCCAGGCAGGCAUCAGAAGAAAUAGUCUUGCGCUCAACCAGAAAGUCUGUAAUCAUUUUAAGGGUA [A11G A33G G58U A69G A90G], the self-cleavage stood at 0.53.

For GUUAACGGUCGUAGGCCAUGGAAACUAGGAGCACCAUUUCGCUGCCAGUGGAGAAAUGAACAAAGAAAAUCUGGGCCGGGCGGGCAUCAAAAGAAAUAGUCUUGCGCUCAACCAGAAAGUCUGUAAUCAUUUUAAGGGUA [A11G A51G A78G A82G], the self-cleavage stood at 0.15.

Regarding GUUAACGGUCGUAGGCCAUGGAAACUAGGGGCACCAUUUCGCUGCCAGUGAAGAAAUGAACAAAGAAAAUCCGGGCCAGGCAGGCAUCAAAAGAAAUAGUCUUGCGCUCAACCAGAAAGUCUGUAAUCAUUUUAAGGGUA [A11G A30G U72C], the self-cleavage amounted to 0.49.

For the variant GUUAACGGUCGUAGGCCAUGGAAGCUAGGAGCACCAUUUCGCUGCCAGUGAAGAAGUGAACAAAGAAAAUCUGGGCCAGGCAGGCGUCAAAAGAAAUAGUCUUGCGCUCAACCAGAAAGUCUGUAAUCAUUUUAAGGGUA [A11G A24G A56G A86G], the self-cleavage is 0.59.

The values above are taken from the RNAGym collection of RNA variant scans (doi:10.7554/elife.90254).
